# Assay results taken from ChEMBL document CHEMBL4888484, “Replenishing the malaria drug discovery pipeline: Screening and hit evaluation of the MMV Hit Generation Library 1 (HGL1) against asexual blood stage Plasmodium falciparum ,using a nano luciferase reporter read-out” (2022).
# The campaign covered roughly 150,000 compounds. About 540 (0.36%) showed an effect of 50% or more. Some of the results follow.
# Test system: Plasmodium falciparum
# Experiment: Primary screen in NF54 nanoGlo assay, in single point, at 2uM, 72h; a lower Z score goes with more inhibition
# Assay type: functional, Erythrocyte
# Details: timepoint 72 hour
Compound,% Inhibition [%],Z score
Cc1cc(C(=O)N(Cc2ccccn2)c2ccc(F)cc2)c2ccccc2n1,0,-0.04
CC1(C)C[C@H](NC(=O)Cc2ccc(-n3cnnc3)cc2)CO1,-17,1.82
Cc1ocnc1-c1noc(-c2n[nH]c(=O)c3ccccc23)n1,-12,1.36
CC(C)C(=O)N(C)Cc1ccc(C(=O)N2CCc3[nH]ncc3C2)cc1,1,-0.1
CN(C(=O)c1noc2c1CCCC2)c1ccccc1Cl,-1,0.13
CC1CC(C)(C)CCC1NC(=O)NC1CCN(C)C1=O (stereo not drawn),33,-4.44
CCc1nn2c(c1-c1ccc(OC)c(S(=O)(=O)N3CCCCCC3)c1)NC(=O)CCC2=O,3,-0.31
CNC(=O)[C@@H]1CCCN1Cc1cnns1,-3,0.49
Cc1nccc(CNC(=O)N2CCC[C@H]2COc2ccc(F)cc2)n1,-15,1.99
CCc1ccc(-c2cc(C(F)(F)F)on2)cc1S(=O)(=O)NCc1ccccc1OC,-1,0.18
CCCC(=O)N(Cc1cccc(OS(=O)(=O)CC)c1)CC(C)C,-3,0.41
Cc1noc(C(F)F)c1C(=O)NCc1cc2n(n1)CCCO2,9,-1.01
CCOC(=O)c1sc(N)nc1CC,-2,0.23
Cc1c(S(N)(=O)=O)sc(C(=O)N[C@@H](C)c2ccc(F)cc2OC(F)F)c1Cl,-10,1.57
CC[C@H](Nc1nc(C)nc2c1CCNC2)c1ccc(C)cc1C,-7,0.65
CC(C)Cc1nc(NC(=O)c2n[nH]c3c2CCC3)n[nH]1,-11,1.47
Cc1csc2c(N3CCC[C@H](N4CCCCC4)C3)ncnc12,-8,0.83
O=C(NC[C@H]1CCCO1)c1cccc(NC(=O)c2nnc(COc3ccccc3)s2)c1,4,-0.54
Cc1ccc(C2CCN(C(=O)[C@H]3CCn4ccnc4C3)CC2)cn1,5,-0.92
CCN([C@H]1CCCc2cccnc21)S(=O)(=O)c1ccnn1C,-19,2.46
Cc1cc(C)cc(N2CCC(N3C[C@H](O)[C@@H](N4CCN(C)CC4)C3)CC2)c1,-1,0.1

Compound,% Inhibition [%],Z score
CC(C)c1ccc(N2C(=O)CN(CCc3ccc(S(N)(=O)=O)cc3)[C@H]3CS(=O)(=O)C[C@H]32)cc1,-5,0.63
COc1nn(C)cc1C(=O)N1CC(Oc2nc3c(OC)cccc3s2)C1,-21,2.42
CC(=O)N[C@@H]1CN(C(=O)NCCc2cc(F)ccc2F)C[C@H]1c1ccnn1C,-3,0.5
Cc1cc(C)cc(NC(=O)CC(=O)N2CCn3c(C(N)=O)cnc3C2)c1,-9,1.19
CCOC(=O)CN1CCCC1C1CC(C)CCC1O (stereo not drawn),1,-0.09
COCCN1C[C@@H](Cc2cc(C(F)(F)F)ccn2)CC1=O,-3,0.39
C[C@@H]1CN(C(=O)c2cc3ccccc3c(=O)[nH]2)C[C@H](C)O1,-8,0.79
CCCCc1nnc(NCc2ccc3c(c2)CCO3)s1,-16,2.5
Cc1nn(-c2ccc(F)cc2)cc1-c1noc(C(=O)NCCCc2ccccc2)n1,-3,0.38
O=C([C@@H]1CCCO1)N1CCN(c2ccc3ccc(F)cc3n2)CC1,-2,0.27
O=S(=O)(NCc1ccccc1)C1CC1,-11,1.56
O=C(Nc1cccnc1-n1cccn1)C1C2CCCCC21 (stereo not drawn),2,-0.22
CCN1CCO[C@@H](CNCc2cscn2)C1,-14,1.41
CCOC(=O)[C@@]1(CCc2ccccc2)CCCN(C2CCN(Cc3ccccn3)CC2)C1,-20,2.73
Fc1cnc(N2CCCC3(C2)OCCO3)nc1,-7,0.65
CCN(C(=O)CN1Cc2c[nH]nc2[C@@H](C)C1)c1ccccc1,7,-1.13
Cc1noc2nc(C3CC3)cc(C(=O)Nc3ccncc3)c12,19,-3.29
O=S(=O)(c1cccs1)N1CCC[C@H](n2ccnn2)CC1,-1,0.1
CC(=O)N1C[C@@H](O)C[C@@H]1C(=O)NC1(Cc2ccccc2)CCCC1,1,-0.15
COc1ccc2cc3c(nc2c1)N(C(=O)c1cccc(F)c1)CC3,-5,0.52
CCN=C(N)NCc1ccccc1CC,1,-0.11

Compound,% Inhibition [%],Z score
O=C(NCCN(CCN1CCOCC1)C(=O)C1=CCCCO1)C1=CCCCO1,-8,0.91
CC(C)(C)NC(=O)C1CCN(C[C@@H]2CC=CCC2)CC1,36,-0.92
O=C(N[C@H]1CCN(c2ccc(Cl)cc2Cl)C1)c1cnns1,5,-0.96
O=C(C1CCCC1)N1CCN(c2nc3cc(Cl)ccc3c3nnc(Cc4ccccc4)n23)CC1,7,-1.19
Cc1nn(-c2ccc(Br)cc2)cc1-c1noc(C(=O)NC2CCCCCCC2)n1,-18,2.34
c1cc(N2CCOCC2)ccc1CN1CCCC2CCCC21 (stereo not drawn),-8,0.92
O=C1NCCCCCCN(Cc2ccc(F)c(F)c2)[C@H]2CCC[C@@H]12,-8,1.09
COc1ccc(COCC(=O)NCC(C)(C)N2CCN(C)CC2)cc1,-5,1.09
O=S(=O)(c1cn[nH]c1)N1CCC([C@@H](O)CCc2ccccc2)CC1,-10,1.22
Cc1ccc(S(=O)(=O)N2CCN(S(=O)(=O)c3ccc(C)cc3)[C@@H](C)C2)cc1,-17,2.16
O=C(NCCN1CCCCC1)C(=O)Nc1cccc2nsnc12,6,-0.68
Cc1ccc2nc(C(=O)N3CCC4(CC3)c3nc[nH]c3CCN4C)c(F)n2c1,-8,1.15
CC(C)CN(C1CCOCC1)C1CN(C(=O)c2ccc3[nH]ccc3c2)C1,1,-0.22
C[C@H](NC(=O)CN1CN(c2ccccc2)C2(CCN(C(=O)c3ccc(Cl)cc3)CC2)C1=O)c1ccccc1,11,-1.18
CC1(C)C(=O)N(Cc2ccccc2)CCN1C(=O)C[C@H](O)c1cccc(F)c1,0,-0.05
CN(CC(=O)Nc1cccc(F)c1)CC(=O)Nc1cc(C(F)(F)F)ccc1N1CCOCC1,-3,0.66
CCc1nn2c(c1-c1ccc(C)c(S(=O)(=O)Nc3cccc(C)c3C)c1)NC(=O)CCC2=O,-8,0.96
CC[C@@H](C(=O)N1CCCc2ccccc21)n1cnc2onc(C)c2c1=O,-7,1.01
Cc1nc(C2CC2)oc1C(=O)N(Cc1ccccc1)[C@@H](C)C(=O)O,-2,0.4
COCCN(Cc1cn(C)c2ccccc12)CC1CCN(Cc2ccccc2OC)CC1,-11,1.27
Cn1cncc1C(=O)N1CCC(Oc2cccc(F)c2)CC1,8,-1.22

Compound,% Inhibition [%],Z score
CCC(C)(C)N1CCN(c2ccnc(N(C)C)n2)CC1,15,-1.96
COc1cc(C)ccc1Oc1nc(C)nc(NCc2ccccc2)c1N,-1,0.17
CC(=O)c1ccc(N2CCN(C(=O)CCN3CCC[C@H](C)C3)CC2)cc1,-1,0.22
CC(C)Cc1cc(-c2cn(CC3(CO)CCOCC3)nn2)n[nH]1,-9,1.8
CC1=NN(c2ccccc2)C(=O)C12Cc1ccc(Cl)cc1N1CCN(Cc3ccccc3)CC12 (stereo not drawn),-7,1.28
Cc1ccc(C(=O)NCc2csc(C)n2)c(=O)[nH]1,-3,0.31
Cc1nc(NS(=O)(=O)c2ccccc2)sc1C(=O)NCc1ccccc1,4,-0.5
Fc1ccccc1-c1noc(-c2cncnc2N2CCCCC2)n1,0,0.05
CCN(CC)Cc1cnc2c(C(=O)N(CC)[C@H]3CCOC(C)(C)C3)cnn2c1,-16,1.48
N#Cc1ccc(C(=O)NC2CCC3CCCCC3C2)cc1 (stereo not drawn),-20,2.85
O=C(c1ccsc1)N1CCCc2cnc(N3CCOCC3)nc21,-8,1.42
O=C(N1CC(c2nc(-c3cnccn3)no2)C1)C1(c2ccccc2)CCOCC1,-7,1.36
Cc1ccc(N2C[C@@H](C(=O)Nc3c4c(nn3C(C)(C)C)CS(=O)(=O)C4)CC2=O)cc1,-5,0.97
Cc1nc2ncnn2c2ccn(-c3ccn[nH]3)c(=O)c12,-4,0.81
COc1cc(C(=O)NC[C@](C)(O)c2ccc(-c3ccccc3)cc2)cc(OC)c1OC,-7,1.26
Cc1ccc(C(=O)N2CCOC3CCCC32)c(=O)[nH]1 (stereo not drawn),-10,1.3
O=C(NCc1ccncc1)[C@]1(F)CCCN(Cc2ccoc2)C1,-11,0.96
Cc1csc([C@H](C)NC(=O)c2n[nH]c3c2CN(C)CC3)n1,0,-0.01
Cc1csc(NC(=O)C[C@@H]2C=CCC2)n1,-25,3.6
CCc1nnc(CNC(=O)Nc2ccc3c(c2)O[C@@H](C)C(=O)N3C)o1,-5,0.51
CCc1cnc(CN(C)C(=O)[C@H]2CCc3nncn3C2)s1,18,-2.26
